In US20200390902A1, “Antibody-Drug Conjugates Targeted at Human Aspartyl-(Asparaginyl)-B-Hydroxylase (HAAH)” (Panacea Pharmaceuticals, Inc., priority 2017, published 2020):

How the values were obtained:
[1] = tested on: metastatic nodules in the lungs (PDAC PDx); assay: PDx model of PDAC, lung metastasis; type: in vivo, mouse; details: 1.9 mg/kg, after 6 weeks of administration
Text: Pancreatic ductular adenocarcinoma (PDAC) is a highly lethal malignancy with limited treatment options. HAAH is a cell surface protein that is highly expressed in […] of PDACs. The specificity of SNS622-MC-DM1 was next examined in the patient-derived xenograft (PDx) mouse model PDAC. The patient-derived xenograft (PDx) murine model was established by using surgically resected PDAC (from Rhode Island Hospital, Providence, R.I., U.S.A.). Five to six-week-old female Nod Scid Gamma (NSG) mice were employed. […] Body weight and tumor size were measured twice a week and tumor volume was calculated using the modified ellipsoid formula (0.5×length×width^2). To determine the effect of SNS622-MC-DM1 on lung metastasis, all lung tissues were immersed in Bouin's fixative solution (Sigma-Aldrich, St. Louis, Mo., U.S.A.; catalog No, HT10132) and metastatic nodules on the surface of the lungs were counted. […]
This phenotype was maintained in the PDx model of NSG mouse. […] In this context, dose and period of administration of PAN-622 or SNS622-MC-DM1 for treatment of NSG mice was reduced to 1.9 mg/kg and the development and growth of metastatic nodules in the lungs after the treatment was assessed After 6 weeks of administration, the number of macroscopic metastatic nodules on the lung surface was determined.

[2] = tested on: HAAH catalytic domain (HAAH-cat); assay: Binding to HAAH catalytic domain (HAAH-cat); set-up: species or system human; details: plates coated with HAAH catalytic domain
Protocol: The catalytic domain of HAAH (HAAH-cat) is exposed at the surface of HAAH-expressing cancer cells. The binding of SNS622-MC-DM1 at different drug-antibody ratio (DAR) and pH to HAAH-cat was measured using IgG1λ as control. The plates were coated with HAAH by treating with […] HAAH catalytic domain overnight. Following blocking with 1% Non-Fat Dry Milk in PBS for one hour, the plates were incubated for 45 minutes at 37° C. with 11.1 mg/ml IgG1λ; 9.6 mg/ml SNS622; 4.8 mg/ml SNS622-MC-DM1 at DAR 2.5, pH 7.0; 5.9 mg/ml SNS622-MC-DM1 at DAR 2.5, pH8.0; 6.1 mg/ml SNS622-DM1 at DAR 5.0, pH 7.0; 5.7 mg/ml SNS622-MC-DM1 at DAR 5.0, pH8.0; 4.1 mg/ml SNS622-DM1 at DAR 10.0, pH7.0; or 4.4 mg/ml SNS622-MC-DM1 at DAR 10.0, pH8.0. Following 5 PBS rinses the plates were incubated with 1:100 goat anti-human IgG (8)-HRP for 30 minutes at 37° C., Following five PBS rinses TMB substrate was added, and after a 15-minute incubation at room temperature, Stop solution was added to terminate the reactions. The plates were read at 450 nm using a 96-well plate reader (ELx808, BioTek). The binding results are shown below in Table VI

H460 cells = assay: MTS cell viability assay, H460; type: cell-based, human; details: H460, 24 hours
Protocol: Human H460 cells were obtained from the American Type Culture Collection (ATCC; Manassas, Va., U.S.A.). The H460 cells were seeded at a density of 5,000 cells/well in 96-well plates and cultured in HG-DMEM (ThermoFisher Scientific, Waltham. Mass., U.S.A.; Catalog No. 11965-092) supplemented with 20 mM HEPES, 4 mM L-glutamine, 1 mM sodium pyruvate, 1× non-essential amino acids, 50 μg/ml gentamicin, and 10% fetal bovine serum (FBS)). Human MOLM-14 cells were obtained from Dr. Ashkan Emadi at University of Maryland (Baltimore. Md., U.S.A.). The MOLM-14 cells were seeded at a density of 5000 cells/well in 96-well plates and cultured in RPMI 1640 with 20% heat-inactivated FBS. The H460 and MOLM-14 cells were treated with naked antibodies or ADCs for 24 hours, starting at the time of cell seeding. By the end of experiment, the cell viability for both cell lines was determined quantitatively using CELL TITER 96 AQUOUS ONE SOLUTION cell proliferation assay, a colorimetric method for determining the number of viable cells (MTS; Promega, Madison. Wis., U.S.A.; Catalog No. G3582).
FIG. 6 depicts the effects of linker and payload on cytotoxicity to cancer cell H460. […] The Log of the antibody concentration in nM is shown on the X axis.
The bioactivities of these SNS622 ADCs were examined using H460 cells. The cells were treated for 48 hours with these SNS622-MC-DM1s, or with SNS622 as control. Cell viability was evaluated at the end of the experiment using an MTS assay.
SNS622-MC-vc-PAB-DM1 and SNS622-MC-MMAE were also synthesized under different initial DAR ratios of 2.5:1, 5:1 and 10:1 at fixed pH8. The 460 cells were treated for 72 hours with ADCs SNS622-MC-vc-PAB-DM1 at with OAR 2.5:1; 5:1; and 10:1, or SNS622-MC-MMAE at with DAR 2.5:1; 5:1; and 10:1. The cell viability and cell death were separately quantified with […] and lactate dehydrogenase (LDH) release assays. FIG. 8A depicts a graph of the MTA quantification results expressed as percentage of untreated control. FIG. 8B depicts a graph of the LDH assay results expressed as percentage of 512 nM DM1-elicited maximal LDH release. The Log of the antibody concentration in nM is shown on the X axis.

B1: SNS622: high-affinity, fully-humanized monoclonal antibody against human aspartyl (asparaginyl) beta-hydroxylase; SEQ ID NO: 1 and 2 (antibody)
heavy: QVQLQQSGPGLVKPSQTLSLTCAISGDSVSSNSAAWNWIRQSPSRGLEWLGRTYYRSKWYNDYAVSVKSRITINPDTSKNQFSLQLNSVTPEDTAVYYCARTGYSSSWVVNFDYWGQGTLVTVSSASTKGPSVFPLAPSSKSTSGGTAALGCLVKDYFPEPVTVSWNSGALTSGVHTFPAVLQSSGLYSLSSVVTVPSSSLGTQTYICNVNHKPSNTKVDKRV[human IgG1 Fc left out]
light: QPVLTQSPSASGTPGQRVTISCSGSSSNIGSNYVYWYQQLPGTAPKLLIYKNNQRPSGVPDRFSGSKSGTAASLAISGLQSEDEADYYCAAWDDSLRGYVFGTGTKLTVLGQPKAAPSVTLFPPSSEELQANKATLVCLISDFYPGAVTVAWKADSSPVKAGVETTTPSKQSNNKYAASSYLSLTPEQWKSHRSYSCQVTHEGSTVEKTVAPTECS
modifications: Heavy Chain; Light Chain
Total number of metastatic nodules in group [1]: around 60
% Binding [2]: ~98%
[Average]* (mg/ml) bound [2]: 9.32 mg/mL
Effect on H460 cell viability / growth (MTS) (H460 cells): no changes in the viability of the H460 cells; also recorded: neither IgG1 nor SNS622 alone induced growth suppression of H460
Effect on H460 cell viability / growth (MTS) (H460 cells; listed as PAN-622): did not display any killing of the H460 cell line

“Also recorded” adds a separate entry of the source.
